# Test results from the supplement of paper PMC8728848.
# The list shows a part of the results.
# B1: CC1G-10077 (Coprinopsis cinerea), A8NDT7 (protein)
# chain: MALNEGVYWIRNSRFTNKVLDLDAANVAKGTSILDFNEHGTFNENHNQLWIVERFQSRDTYLIRSVHSNLVLDLSQGLSANGTPILCWTQHGGTNQQWRIEWVKDDNKTPLYRIVSVATGTAISHNEDDSSAYTVAWSVDDGPKQLWSFDPFVTPLLYRLRVKSTSRVLDLAAASADNGTLALAWEQHTAITKRNQLWWLPYRSGAEEYTIQCLETSTVADLSGGNSGNGTPIYGWQSHGGRNQQWKFEPTSDSGDYYHIKNVEGGSVMDAYMNDSQKRVGGWSNNGGDNQKWLLDPLPSPGPGWVLIQNGGTGKFLCSTPSGDIGTADGPETVYDYSVQWRFIQREYTGVYHVVNRATGAYLRQIGTSMPSIGLAEENDDELKDWWMLETYDNSEIGLASIISRWTGNVLDHYGGVSVQALDNNTENSYRSWAIIPARDWLTSFSLVNGQGGLCLAAQYAREETRLSTTANVNDFHAQWVFRKPSGSSGYTIQNKYNNHYVGGTSARWELVVCCNKYFGIRNTSTQKYLAIEDGQVTFQDQDMTDRKQCWELCSGRATDTSGNDYDLIYMDDDLLEVMIPWVGDKQGDLKHYIEKRATKKPPKDKGGWQLPAAGLIKKPKFNDIRQLLQELIEQWEWDVVNEEREQIQTLVSIDEAEARRLLGRRPHPDIVAAYQRSRSSTLFRIDRQGYFNIAGDRYVNIQGQYGDDSYFHIALPVGVRFGREQIRRFLRDSLDRSTSVTITPTTCKPPSGGPDYNRDPDSDGDNSWIKWTIAVVGTSAIKHSEL
# Experiments:
# Assay in all cases: glycan array binding signal (z-score within array); higher = stronger binding
# Settings in all cases: glycan notation: IUPAC condensed, linker removed
# [1] = target: GlcNAc(a1-6)Gal(b1-4)GlcNAc
# Procedure, shortened: (§1)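 Columns mapping to the same glycan were averaged after glycan names were converted to IUPAC-condensed notation. The data come from 3228 arrays in the Consortium for Functional Glycomics database, limited to those with an available protein sequence. Binding is reported as a within-array Z-score averaged across arrays of one protein sequence and across linkers.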
# [2] = target: GlcNAc(b1-2)Gal(b1-3)GalNAc
# Procedure, shortened: as §1
# [3] = target: GlcNAc(b1-2)Man(a1-3)[GlcNAc(b1-2)Man(a1-6)]Man(b1-4)GlcNAc(b1-4)GlcNAc
# Procedure, shortened: as §1
# [4] = target: GlcNAc(b1-2)Man(a1-3)[GlcNAc(b1-2)Man(a1-6)]Man(b1-4)GlcNAc(b1-4)[Fuc(a1-6)]GlcNAc
# Procedure, shortened: as §1
# [5] = target: GlcNAc(b1-2)Man(a1-3)[GlcNAc(b1-4)][GlcNAc(b1-2)Man(a1-6)]Man(b1-4)GlcNAc(b1-4)GlcNAc
# Procedure, shortened: as §1
# [6] = target: GlcNAc(b1-2)Man(a1-3)[GlcNAc(b1-4)][GlcNAc(b1-2)Man(a1-6)]Man(b1-4)GlcNAc(b1-4)[Fuc(a1-6)]GlcNAc
# Procedure, shortened: as §1
# [7] = target: GlcNAc(b1-2)[GlcNAc(b1-4)]Man(a1-3)[GlcNAc(b1-2)Man(a1-6)]Man(b1-4)GlcNAc(b1-4)GlcNAc
# Procedure, shortened: as §1
# [8] = target: GlcNAc(b1-2)[GlcNAc(b1-4)]Man(a1-3)[GlcNAc(b1-4)][GlcNAc(b1-2)Man(a1-6)]Man(b1-4)GlcNAc(b1-4)GlcNAc
# Procedure, shortened: as §1
# [9] = target: GlcNAc(b1-2)[GlcNAc(b1-4)]Man(a1-3)[GlcNAc(b1-4)][GlcNAc(b1-2)[GlcNAc(b1-6)]Man(a1-6)]Man(b1-4)GlcNAc(b1-4)GlcNAc
# Procedure, shortened: as §1
# [10] = target: GlcNAc(b1-2)[GlcNAc(b1-4)]Man(a1-3)[GlcNAc(b1-4)][GlcNAc(b1-2)[GlcNAc(b1-6)]Man(a1-6)]Man(b1-4)GlcNAc(b1-4)[Fuc(a1-6)]GlcNAc
# Procedure, shortened: as §1
# [11] = target: GlcNAc(b1-2)[GlcNAc(b1-6)]Man(a1-6)[GlcNAc(b1-2)Man(a1-3)]Man(b1-4)GlcNAc(b1-4)GlcNAc
# Procedure, shortened: as §1
# [12] = target: GlcNAc(b1-2)[GlcNAc(b1-6)]Man(a1-6)[GlcNAc(b1-2)Man(a1-3)]Man(b1-4)GlcNAc(b1-4)[Fuc(a1-6)]GlcNAc
# Procedure, shortened: as §1
# [13] = target: GlcNAc(b1-2)[GlcNAc(b1-6)]Man(a1-6)[GlcNAc(b1-4)][GlcNAc(b1-2)Man(a1-3)]Man(b1-4)GlcNAc(b1-4)GlcNAc
# Procedure, shortened: as §1
# GlcNAc(b1-3)Fuc = target: GlcNAc(b1-3)Fuc
# Procedure, shortened: as §1
# GlcNAc(b1-3)Gal = target: GlcNAc(b1-3)Gal
# Procedure, shortened: as §1
# [14] = target: GlcNAc(b1-3)Gal(b1-3)GalNAc
# Procedure, shortened: as §1
# GlcNAc(b1-3)Gal(b1-4)Glc = target: GlcNAc(b1-3)Gal(b1-4)Glc
# Procedure, shortened: as §1
# [15] = target: GlcNAc(b1-3)Gal(b1-4)GlcNAc
# Procedure, shortened: as §1
# [16] = target: GlcNAc(b1-3)Gal(b1-4)GlcNAc(b1-2)Man(a1-3)[GlcNAc(b1-3)Gal(b1-4)GlcNAc(b1-2)Man(a1-6)]Man(b1-4)GlcNAc(b1-4)GlcNAc
# Procedure, shortened: as §1
# [17] = target: GlcNAc(b1-3)Gal(b1-4)GlcNAc(b1-2)Man(a1-3)[GlcNAc(b1-3)Gal(b1-4)GlcNAc(b1-2)Man(a1-6)]Man(b1-4)GlcNAc(b1-4)[Fuc(a1-6)]GlcNAc
# Procedure, shortened: as §1
# [18] = target: GlcNAc(b1-3)Gal(b1-4)GlcNAc(b1-2)[GlcNAc(b1-3)Gal(b1-4)GlcNAc(b1-6)]Man(a1-6)[GlcNAc(b1-3)Gal(b1-4)GlcNAc(b1-2)Man(a1-3)]Man(b1-4)GlcNAc(b1-4)GlcNAc
# Procedure, shortened: as §1
# [19] = target: GlcNAc(b1-3)Gal(b1-4)GlcNAc(b1-3)Gal(b1-4)GlcNAc
# Procedure, shortened: as §1
# [20] = target: GlcNAc(b1-3)Gal(b1-4)GlcNAc(b1-3)Gal(b1-4)GlcNAc(b1-2)Man(a1-3)[GlcNAc(b1-3)Gal(b1-4)GlcNAc(b1-3)Gal(b1-4)GlcNAc(b1-2)Man(a1-6)]Man(b1-4)GlcNAc(b1-4)GlcNAc
# Procedure, shortened: as §1
# [21] = target: GlcNAc(b1-3)Gal(b1-4)GlcNAc(b1-3)Gal(b1-4)GlcNAc(b1-2)Man(a1-3)[GlcNAc(b1-3)Gal(b1-4)GlcNAc(b1-3)Gal(b1-4)GlcNAc(b1-2)Man(a1-6)]Man(b1-4)GlcNAc(b1-4)[Fuc(a1-6)]GlcNAc
# Procedure, shortened: as §1
# [22] = target: GlcNAc(b1-3)Gal(b1-4)GlcNAc(b1-3)Gal(b1-4)GlcNAc(b1-2)[GlcNAc(b1-3)Gal(b1-4)GlcNAc(b1-3)Gal(b1-4)GlcNAc(b1-6)]Man(a1-6)[GlcNAc(b1-3)Gal(b1-4)GlcNAc(b1-3)Gal(b1-4)GlcNAc(b1-2)Man(a1-3)]Man(b1-4)GlcNAc(b1-4)[Fuc(a1-6)]GlcNAc
# Procedure, shortened: as §1
# [23] = target: GlcNAc(b1-3)Gal(b1-4)GlcNAc(b1-3)Gal(b1-4)GlcNAc(b1-3)Gal(b1-4)GlcNAc(b1-2)Man(a1-3)[GlcNAc(b1-3)Gal(b1-4)GlcNAc(b1-3)Gal(b1-4)GlcNAc(b1-3)Gal(b1-4)GlcNAc(b1-2)Man(a1-6)]Man(b1-4)GlcNAc(b1-4)GlcNAc
# Procedure, shortened: as §1
# [24] = target: GlcNAc(b1-3)Gal(b1-4)GlcNAc(b1-3)Gal(b1-4)GlcNAc(b1-3)Gal(b1-4)GlcNAc(b1-2)Man(a1-3)[GlcNAc(b1-3)Gal(b1-4)GlcNAc(b1-3)Gal(b1-4)GlcNAc(b1-3)Gal(b1-4)GlcNAc(b1-2)Man(a1-6)]Man(b1-4)GlcNAc(b1-4)[Fuc(a1-6)]GlcNAc
# Procedure, shortened: as §1
# [25] = target: GlcNAc(b1-3)Gal(b1-4)GlcNAc(b1-3)Gal(b1-4)GlcNAc(b1-3)Gal(b1-4)GlcNAc(b1-2)[GlcNAc(b1-3)Gal(b1-4)GlcNAc(b1-3)Gal(b1-4)GlcNAc(b1-3)Gal(b1-4)GlcNAc(b1-6)]Man(a1-6)[GlcNAc(b1-3)Gal(b1-4)GlcNAc(b1-3)Gal(b1-4)GlcNAc(b1-3)Gal(b1-4)GlcNAc(b1-2)Man(a1-3)]Man(b1-4)GlcNAc(b1-4)[Fuc(a1-6)]GlcNAc
# Procedure, shortened: as §1
# [26] = target: GlcNAc(b1-3)Gal(b1-4)GlcNAc(b1-3)Gal(b1-4)GlcNAc(b1-3)Gal(b1-4)GlcNAc(b1-3)Gal(b1-4)GlcNAc(b1-2)Man(a1-3)[GlcNAc(b1-3)Gal(b1-4)GlcNAc(b1-3)Gal(b1-4)GlcNAc(b1-3)Gal(b1-4)GlcNAc(b1-3)Gal(b1-4)GlcNAc(b1-2)Man(a1-6)]Man(b1-4)GlcNAc(b1-4)GlcNAc
# Procedure, shortened: as §1
# [27] = target: GlcNAc(b1-3)Gal(b1-4)GlcNAc(b1-3)Gal(b1-4)GlcNAc(b1-3)Gal(b1-4)GlcNAc(b1-3)Gal(b1-4)GlcNAc(b1-2)Man(a1-3)[GlcNAc(b1-3)Gal(b1-4)GlcNAc(b1-3)Gal(b1-4)GlcNAc(b1-3)Gal(b1-4)GlcNAc(b1-3)Gal(b1-4)GlcNAc(b1-2)Man(a1-6)]Man(b1-4)GlcNAc(b1-4)[Fuc(a1-6)]GlcNAc
# Procedure, shortened: as §1
binder,measurement,setting,value
B1,glycan array binding signal (z-score),[1],2.9
same,glycan array binding signal (z-score),[2],-0.434
same,glycan array binding signal (z-score),[3],-0.061
same,glycan array binding signal (z-score),[4],-0.37
same,glycan array binding signal (z-score),[5],-0.448
same,glycan array binding signal (z-score),[6],-0.482
same,glycan array binding signal (z-score),[7],-0.015
same,glycan array binding signal (z-score),[8],-0.477
same,glycan array binding signal (z-score),[9],-0.353
same,glycan array binding signal (z-score),[10],-0.263
same,glycan array binding signal (z-score),[11],0.01
same,glycan array binding signal (z-score),[12],-0.057
same,glycan array binding signal (z-score),[13],-0.388
same,glycan array binding signal (z-score),GlcNAc(b1-3)Fuc,-0.435
same,glycan array binding signal (z-score),GlcNAc(b1-3)Gal,-0.416
same,glycan array binding signal (z-score),[14],-0.467
same,glycan array binding signal (z-score),GlcNAc(b1-3)Gal(b1-4)Glc,-0.371
same,glycan array binding signal (z-score),[15],-0.42
same,glycan array binding signal (z-score),[16],-0.222
same,glycan array binding signal (z-score),[17],-0.201
same,glycan array binding signal (z-score),[18],-0.03
same,glycan array binding signal (z-score),[19],-0.107
same,glycan array binding signal (z-score),[20],-0.335
same,glycan array binding signal (z-score),[21],-0.198
same,glycan array binding signal (z-score),[22],-0.106
same,glycan array binding signal (z-score),[23],-0.172
same,glycan array binding signal (z-score),[24],-0.141
same,glycan array binding signal (z-score),[25],-0.047
same,glycan array binding signal (z-score),[26],-0.107
same,glycan array binding signal (z-score),[27],0.905
